{"source": "PubChem BioAssay AID1466", "about": "(National Center for Advancing Translational Sciences (NCATS), 2008)", "note": "Screen size: about 200,000 compounds; about 10 (0.005%) were called active. Inconclusive means that the source gave no clear call. Such entries were picked first, then a sample of the others. Calls follow the shape of the dose curve; as a rule, active = well fitted inhibition curve with a large enough effect; inconclusive = small, poorly fitted or top-dose-only effect, or effect the other way, or another doubt; inactive = no such curve, though single readings can be large or run the other way. A potency beside an inconclusive call is a rough fit, not a confirmed value. Potency is read from the fitted curve at half-maximal effect; tags tell the direction and shape of the fitted curve."}
{"target": "Lysosomal alpha-glucosidase (Homo sapiens) (UniProt P10253)", "test": "qHTS Assay for Inhibitors of Human alpha-Glucosidase as a Potential Chaperone Treatment of Pompe Disease;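 as to activity change, negative = inhibition: plate controls were uninhibited enzyme wells for no effect and no-enzyme background for full effect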", "conditions": "purified human GAA, 4-MU-alpha-glucoside fluorescence; activity change, negative = inhibition: at 76.9 µM (top of the series) unless noted", "how_it_was_run": "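Compounds are titrated up to 77 uM against 4 nM human enzyme. Substrate 4-methylumbelliferyl-alpha-D-pyranoside (400 uM) reacts 20 min at room temperature in pH 5.0 buffer; liberated 4-methylumbelliferone is read at 440 nm.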"}
{"smiles": "COc1ccc(NC(=S)N/N=C2\\CC(C)(C)Oc3ccc(O)cc32)cc1", "activity change, negative = inhibition": "inactive: -4.91%"}
{"smiles": "Cc1ccc(S(=O)(=O)/C(C#N)=C/c2c[nH]c3ccccc23)cc1", "activity change, negative = inhibition": "inconclusive: -17.3% [inhibitor]"}
{"smiles": "Cc1cccn2c(=O)c3cc(C(=O)N4COCC4(C)C)sc3nc12", "Potency": "inconclusive: 12.6 µM [activator, partial curve]"}
{"smiles": "O=C(/C=C/c1c[nH]c2ccccc12)c1cccc2ccccc12", "activity change, negative = inhibition": "inconclusive: -2.82% [inhibitor] [at 15.4 µM]"}
{"smiles": "Nc1ccccc1SCC(=O)Nc1nc(-c2ccccc2)cs1", "Potency": "inconclusive: 50.1 µM [inhibitor, single point]"}
{"smiles": "CC(NS(=O)(=O)c1ccc2c(c1)OCCO2)c1ccccc1", "note": "(stereo not given)", "activity change, negative = inhibition": "inconclusive: 13.6% [activator]"}
{"smiles": "CCOC(=O)N1CCN(Cc2cn[nH]c2-c2cc3ccccc3o2)CC1", "activity change, negative = inhibition": "inconclusive: 8.01% [activator]"}
{"smiles": "C[C@@H](C(=O)Nc1ccc2ccccc2c1)[C@H]1C[C@]1(C)[C@H](NC(=O)c1cccnc1)c1ccccc1", "activity change, negative = inhibition": "inconclusive: -15.4% [inhibitor]"}
{"smiles": "Clc1ccc(-n2ncc3c(NCc4cccs4)ncnc32)cc1", "Potency": "inconclusive: 6.31 µM [inhibitor, partial curve, poor fit]"}
{"smiles": "CC(C)Cn1c(-c2cccs2)nc2nc3ccccc3nc21", "Potency": "inconclusive: 35.5 µM [activator, partial curve]"}
{"smiles": "O=C(CCSc1ccc(F)cc1)Nc1ccc(-n2cnnn2)cc1", "Potency": "inconclusive: 7.08 µM [inhibitor, full curve, poor fit]"}
{"smiles": "CC(C)(C)c1ccc(Cn2nnc3c(=O)[nH]c(C4CCN(C(=O)Cc5cccs5)CC4)nc32)cc1", "activity change, negative = inhibition": "inconclusive: -16.4% [inhibitor]"}
{"smiles": "Cc1nnc(SCC(=O)Nc2nsc(-c3ccccc3)n2)s1", "Potency": "inconclusive: 7.94 µM [inhibitor, single point]"}
{"smiles": "Cc1cccc(N2CCN(C(=O)C3CCN(S(=O)(=O)c4c(C)noc4C)CC3)CC2C)c1", "note": "(stereo not given)", "activity change, negative = inhibition": "inconclusive: -20.1% [inhibitor]"}
{"smiles": "Cc1ccc(C)c2nc3sc(C(=O)O)cc3cc12", "activity change, negative = inhibition": "inconclusive: 22% [activator]"}
{"smiles": "CC12C(=O)N(c3ccccc3)C(=O)C1C(c1ccccc1)N1CCCN12", "note": "(stereo not given)", "activity change, negative = inhibition": "inactive: -7.1% [at 15.4 µM]"}
{"smiles": "CCCOc1ccc(/C=N/Nc2cccc([N+](=O)[O-])c2)c(O)c1", "activity change, negative = inhibition": "inconclusive: 3.16% [activator]"}
{"smiles": "O=c1oc2c(CN3CCOCC3)c(O)c(Cl)cc2c2c1CCC2", "Potency": "inconclusive: 35.5 µM [activator, partial curve]"}
{"smiles": "COc1ccc(N(C(C)C(=O)N/N=C/c2cc(Br)c(C)o2)S(C)(=O)=O)cc1", "note": "(stereo not given)", "activity change, negative = inhibition": "inconclusive: 19.4% [activator]"}
{"smiles": "CCOC(=O)N1CCN(C(=O)COc2ccc(S(=O)(=O)NC3CCCCC3)cc2C)CC1", "Potency": "inconclusive: 31.6 µM [inhibitor, single point]"}
{"smiles": "COc1ccc(CCNC(=O)CC2SC(=NCCc3ccccc3)NC2=O)cc1OC", "note": "(stereo not given)", "Potency": "inconclusive: 0.224 µM [inhibitor, full curve]"}
{"smiles": "Cn1c(N)c(C(=O)COC(=O)[C@H](Cc2ccccc2)N2C(=O)c3ccccc3C2=O)c(=O)n(C)c1=O", "Potency": "inconclusive: 5.01 µM [inhibitor, full curve]"}
{"smiles": "Cn1nc(-c2ccccc2F)c2cc(C(=O)Nc3ccc4c(c3)OCCO4)sc21", "activity change, negative = inhibition": "inconclusive: -15.9% [inhibitor]"}
{"smiles": "COC(=O)c1ccc2nc(-c3ccc(S(C)(=O)=O)cc3)cn2c1", "activity change, negative = inhibition": "inconclusive: 15.1% [activator]"}
{"smiles": "COc1ccc(C(=O)CC(=O)c2ccccc2O)cc1OC", "Potency": "inconclusive: 39.8 µM [inhibitor, single point]"}
{"smiles": "CC(C)Cn1c(N)c(C(=O)NCc2cccs2)c2nc3ccccc3nc21", "Potency": "inconclusive: 31.6 µM [activator, partial curve]"}
{"smiles": "Cc1cc(C)cc(OCc2nnc(SCC(=O)c3ccc(Br)cc3)o2)c1", "Potency": "inconclusive: 25.1 µM [inhibitor, partial curve]"}
{"smiles": "N#CC(Cc1ccccc1OC(F)F)c1nc2ccccc2[nH]1", "note": "(stereo not given)", "Potency": "inconclusive: 11.2 µM [inhibitor, single point]"}
{"smiles": "Cc1c(-c2cccc(NC(=O)c3ccco3)c2)nc2ncccn12", "Potency": "inconclusive: 35.5 µM [activator, partial curve]"}
{"smiles": "CCOC(=O)CSc1nnc(-c2c[nH]c3ccccc23)n1CC", "Potency": "inconclusive: 50.1 µM [inhibitor, single point]"}
{"smiles": "Cc1cc(C(=O)CSc2nnnn2-c2ccc(O)cc2)c(C)n1Cc1ccc2c(c1)OCO2", "Potency": "inconclusive: 39.8 µM [inhibitor, single point]"}
{"smiles": "Cc1nn(C)c(C)c1CN(C)C(=O)c1cc2n(n1)C(C(F)(F)F)CC(c1cccs1)N2", "note": "(stereo not given)", "Potency": "inconclusive: 56.2 µM [inhibitor, single point]"}
{"smiles": "CCOc1ccc(OCC)c(S(=O)(=O)n2cc(C)nc2CC)c1", "Potency": "inconclusive: 3.98 µM [inhibitor, single point]"}
{"smiles": "O=C(Nc1ccc(S(=O)(=O)N2CCc3ccccc32)cc1)c1ccco1", "Potency": "inconclusive: 31.6 µM [inhibitor, partial curve, poor fit]"}
{"smiles": "CN(C)c1[nH]c(=O)c(C#N)c2c1CCN2Cc1ccccc1", "Potency": "inconclusive: 1 µM [inhibitor, full curve]"}
{"smiles": "Cc1cc(Cl)ccc1OCC(=O)N1CC(C)CC(C)C1", "note": "(stereo not given)", "activity change, negative = inhibition": "inconclusive: -20.4% [inhibitor]"}
{"smiles": "O=C(CN1CC(=O)Oc2ccccc21)NCc1ccco1", "activity change, negative = inhibition": "inactive: -6.67%"}
{"smiles": "Cc1ccc(-n2ncc3c(SCc4ccccc4)ncnc32)cc1", "activity change, negative = inhibition": "inactive: -1.74%"}
{"smiles": "Cc1ccc(S(=O)(=O)CC(=O)c2cc(C)c(O)c(C)c2)cc1", "activity change, negative = inhibition": "inconclusive: -17.3% [inhibitor]"}
{"smiles": "CC1CC(=O)Nc2ccccc2N1S(=O)(=O)c1ccccc1", "note": "(stereo not given)", "Potency": "inconclusive: 1.78 µM [inhibitor, full curve, poor fit]"}
{"smiles": "CNC(=S)N(CCc1c(C)[nH]c2ccc(C)cc12)Cc1cc(OC)c(OC)c(OC)c1", "Potency": "inconclusive: 50.1 µM [inhibitor, single point]"}
{"smiles": "CN1CCc2c(C#N)c(N3CCCCC3)nc(NCc3ccccc3)c2C1", "Potency": "inconclusive: 22.4 µM [inhibitor, partial curve]"}
{"smiles": "CCN(CC)C(=O)c1ccc(/C=C/c2c[nH]c3ccccc23)[n+](C)c1", "Potency": "inconclusive: 50.1 µM [inhibitor, single point]"}
{"smiles": "CCOC(=O)C1C(=O)NC(SCC(=O)Nc2nccs2)=C(C#N)C1c1ccccc1OCC", "note": "(stereo not given)", "Potency": "inconclusive: 12.6 µM [inhibitor, single point]"}
{"smiles": "CCOC(=O)c1ccc(-c2ccc(/C=N/NC(=O)CN(c3ccccc3Br)S(C)(=O)=O)o2)cc1", "Potency": "inconclusive: 20 µM [activator, partial curve]"}
{"smiles": "CSc1c(-c2ccccc2)nc2ccc(Cl)cc2c1C(=O)O", "Potency": "inconclusive: 1.58 µM [inhibitor, full curve, poor fit]"}
{"smiles": "Cc1oc2c(CN3CCCC3)c(O)ccc2c(=O)c1Oc1ccccc1Br", "Potency": "inconclusive: 50.1 µM [activator, single point]"}
{"smiles": "Cc1ccc(-c2nnc3c4ccccc4c(C)nn23)cc1NC(=O)CN1CCOCC1", "activity change, negative = inhibition": "inactive: -4.03%"}
{"smiles": "COc1ccc(C2=Nn3c(nnc3-c3ccccn3)SC2)cc1OC", "Potency": "inconclusive: 0.178 µM [inhibitor, full curve, poor fit]"}
{"smiles": "Cc1cccc(Oc2ccc(NC(=O)c3ccccc3C(=O)O)cc2)c1C", "Potency": "inconclusive: 5.62 µM [inhibitor, single point]"}
{"smiles": "CCOc1ccc(C2C(C(=O)c3ccc(C)o3)=C(O)C(=O)N2CCN2CCOCC2)cc1OC", "note": "(stereo not given)", "activity change, negative = inhibition": "inconclusive: -16.9% [inhibitor]"}
{"smiles": "Cc1cc(NCc2ccco2)nc2cc(O)ccc12", "Potency": "inconclusive: 35.5 µM [activator, partial curve]"}
{"smiles": "Cc1ccc(CC2CC(=O)N(c3cc(C)on3)C2=O)cc1", "note": "(stereo not given)", "activity change, negative = inhibition": "inconclusive: -15.9% [inhibitor]"}
{"smiles": "CCNc1nc(C)c(CN(C(C)=O)c2ccccc2)nc1C#N", "Potency": "inconclusive: 31.6 µM [activator, partial curve]"}
{"smiles": "Cc1ccc(-n2c(SCC(=O)NCc3ccco3)nc3nc4c(cc3c2=O)COC(C)(C)C4)cc1", "activity change, negative = inhibition": "inactive: -3.69%"}
{"smiles": "O=S1(=O)c2cccc3cccc(c23)N1Cc1nnc(-c2ccccc2Br)o1", "Potency": "inconclusive: 35.5 µM [inhibitor, partial curve]"}
{"smiles": "O=C(COc1ccc(Cl)cc1)NCCSCc1cccc(Cl)c1", "Potency": "inconclusive: 0.501 µM [inhibitor, full curve, poor fit]"}
{"smiles": "O=C(CN1C(=O)CSC1=O)N1CCCCC1", "Potency": "inconclusive: 11.2 µM [inhibitor, partial curve, poor fit]"}
{"smiles": "Cc1ccc(NC(=O)CN2C(=O)NC3(CCc4ccccc43)C2=O)cc1Cl", "note": "(stereo not given)", "activity change, negative = inhibition": "inconclusive: -15.8% [inhibitor]"}
{"smiles": "Cc1ccc(C(=O)Nc2cccc(S(=O)(=O)N3CCOCC3)c2)cc1[N+](=O)[O-]", "Potency": "inconclusive: 39.8 µM [inhibitor, single point]"}
{"smiles": "Cc1ccc(NC(=O)CS(=O)CC(=O)N(CC(=O)NC2CCCC2)c2ccc3c(c2)OCCO3)cc1", "note": "(stereo not given)", "Potency": "inconclusive: 0.178 µM [activator, full curve, poor fit]"}
{"smiles": "CN1C=CC=C/C1=C1\\SC(=S)N(N)C1=O", "Potency": "inconclusive: 56.2 µM [inhibitor, single point]"}
{"smiles": "CC(C)C1Oc2cc3oc(=O)ccc3cc2C1=O", "note": "(stereo not given)", "activity change, negative = inhibition": "inconclusive: 18.1% [activator]"}
{"smiles": "COc1ccc(C(=O)Nc2ccc(F)cc2F)cc1", "Potency": "inconclusive: 20 µM [inhibitor, partial curve]"}
{"smiles": "CCOC(=O)c1ccc(NC(=O)Nc2ccc(OC)c(OC)c2)cc1", "Potency": "inconclusive: 11.2 µM [inhibitor, single point]"}
